Patent publication US10730848B2 (priority 2013, dated 2020)

Conditions: assay concentrations

Compound | solubility (in words)
Cc1cccc(C)c1NC(=S)N/N=C/c1ccc(Br)cc1F [Compound 19b, N^1-(4-BROMO-2-FLUOROBENZYLIDENE)-N^4-(2,6-DIMETHYLPHENYL)THIOSEMICARBAZONE] | poorly soluble at assay concentrations
Cc1cccc(C)c1NC(=S)N/N=C/c1c(F)cc(Br)cc1F [Compound 19c, N^1-(4-BROMO-2,6-DIFLUOROBENZYLIDENE)-N^4-(2,6-DIMETHYLPHENYL)THIOSEMICARBAZONE] | poorly soluble at assay concentrations
Cc1cccc(C)c1/N=C(\N)N/N=C/c1ccc(Br)cc1 [Compound 22, 2-(4-BROMOBENZYLIDENE)-N′-(2,6-DIMETHYLPHENYL)HYDRAZINECARBOXIMIDAMIDE] | significantly more soluble
